{"source": "patent US20250064779A1", "about": "“COMPOSITIONS AND METHODS FOR THE TREATMENT OF DEPRESSION” (Janssen Pharmaceuticals, Inc., priority 2022, published 2025)", "tested_on": "subjects with MDD who have had an inadequate response to SSRI/SNRI treatment", "key": {"[1]": {"conditions": "eITT, low anhedonia (SHAPS >=20 and <38 at treatment baseline), Treatment Week 1"}, "[2]": {"conditions": "eITT, low anhedonia (SHAPS >=20 and <38 at treatment baseline), Treatment Week 3"}, "[3]": {"conditions": "eITT, low anhedonia (SHAPS >=20 and <38 at treatment baseline), Treatment Week 4"}, "[4]": {"conditions": "eITT, low anhedonia (SHAPS >=20 and <38 at treatment baseline), Treatment Week 5"}, "[5]": {"conditions": "eITT, low anhedonia (SHAPS >=20 and <38 at treatment baseline), Treatment Week 6"}, "[6]": {"conditions": "fITT, Treatment Week 3, 10 mg adjunctive to SSRI/SNRI"}, "[7]": {"conditions": "fITT, high anhedonia (SHAPS >=38 at treatment baseline), Treatment Week 1"}, "[8]": {"conditions": "fITT, high anhedonia (SHAPS >=38 at treatment baseline), Treatment Week 3"}, "[9]": {"conditions": "fITT, high anhedonia (SHAPS >=38 at treatment baseline), Treatment Week 4"}, "[10]": {"conditions": "fITT, high anhedonia (SHAPS >=38 at treatment baseline), Treatment Week 5"}, "[11]": {"conditions": "fITT, high anhedonia (SHAPS >=38 at treatment baseline), Treatment Week 6"}, "[12]": {"conditions": "fITT, low anhedonia (SHAPS >=20 and <38 at treatment baseline), Treatment Week 1"}, "[13]": {"conditions": "fITT, low anhedonia (SHAPS >=20 and <38 at treatment baseline), Treatment Week 3"}, "[14]": {"conditions": "fITT, low anhedonia (SHAPS >=20 and <38 at treatment baseline), Treatment Week 4"}, "[15]": {"conditions": "fITT, low anhedonia (SHAPS >=20 and <38 at treatment baseline), Treatment Week 5"}, "[16]": {"conditions": "fITT, low anhedonia (SHAPS >=20 and <38 at treatment baseline), Treatment Week 6"}}, "note": "“And” between values parts separate entries of the source, which are not always exact repeats. Equal values may be shown once. Read-outs that look alike come from different tables or passages of the source."}
{"smiles": "Cc1cc(C)cc(C2CCCN2Cc2ccc(Oc3ccc(C(N)=O)cc3F)cc2)c1", "note": "(stereo not shown) [aticaprant, 3-fluoro-4-4-2-(3,5-dimethylphenyl)pyrrolidin-1-yl-methylphenoxybenzamide]", "values": [{"measurement": "MADRS Total Score: Mean Change from Baseline (SD)", "setting": "[1]", "value": "−2.3 (5.03)"}, {"measurement": "MADRS Total Score: Mean Change to Placebo (SD pooled)", "setting": "[1]", "value": "−0.5 (4.30)"}, {"measurement": "MADRS Total Score: Effect size vs placebo", "setting": "[2]", "value": "−0.01"}, {"measurement": "MADRS Total Score: Mean Change from Baseline (SD)", "setting": "[2]", "value": "−4.9 (5.99)"}, {"measurement": "MADRS Total Score: Mean Change to Placebo (SD pooled)", "setting": "[2]", "value": "−0.1 (5.85)"}, {"measurement": "MADRS Total Score: Effect size vs placebo", "setting": "[3]", "value": 0.01}, {"measurement": "MADRS Total Score: Mean Change from Baseline (SD)", "setting": "[3]", "value": "−6.4 (7.40)"}, {"measurement": "MADRS Total Score: Mean Change to Placebo (SD pooled)", "setting": "[3]", "value": "0.0 (6.80)"}, {"measurement": "MADRS Total Score: Effect size vs placebo", "setting": "[4]", "value": 0.05}, {"measurement": "MADRS Total Score: Mean Change from Baseline (SD)", "setting": "[4]", "value": "−7.2 (6.46)"}, {"measurement": "MADRS Total Score: Mean Change to Placebo (SD pooled)", "setting": "[4]", "value": "0.3 (6.65)"}, {"measurement": "MADRS Total Score: Effect size vs placebo", "setting": "[5]", "value": "−0.11"}, {"measurement": "MADRS Total Score: Mean Change from Baseline (SD)", "setting": "[5]", "value": "−9.2 (8.01)"}, {"measurement": "MADRS Total Score: Mean Change to Placebo (SD pooled)", "setting": "[5]", "value": "−0.9 (8.13)"}, {"measurement": "onset of effect: significant treatment effect on MADRS vs placebo seen as early as", "setting": "fITT, FIG. 7B", "value": 3, "unit": "week"}, {"measurement": "MADRS Total Score: Mean Change to Placebo (SD pooled)", "setting": "fITT, Treatment Week 1, 10 mg adjunctive to SSRI/SNRI", "value": "−1.3 (4.43)"}, {"measurement": "MADRS Total Score: Change from Baseline LSMean (SE)", "setting": "fITT, Treatment Week 1, MMRM", "value": "−3.2"}, {"measurement": "MADRS Total Score: LSMean Difference (SE) Treatment-Placebo", "setting": "fITT, Treatment Week 1, MMRM", "value": "−1.6"}, {"measurement": "MADRS Total Score: Mean (SD)", "setting": "[6]", "value": 20.0}, {"measurement": "MADRS Total Score: Mean Change to Placebo (SD pooled)", "setting": "[6]", "value": "−1.7 (6.62)"}, {"measurement": "MADRS Total Score: Change from Baseline LSMean (SE)", "setting": "fITT, Treatment Week 3, MMRM", "value": "−5.2"}, {"measurement": "MADRS Total Score: LSMean Difference (SE) Treatment-Placebo", "setting": "fITT, Treatment Week 3, MMRM", "value": "−1.9"}, {"measurement": "MADRS Total Score: Mean Change to Placebo (SD pooled)", "setting": "fITT, Treatment Week 4, 10 mg adjunctive to SSRI/SNRI", "value": "−2.3 (7.02)"}, {"measurement": "MADRS Total Score: Change from Baseline LSMean (SE)", "setting": "fITT, Treatment Week 4, MMRM", "value": "−7.3"}, {"measurement": "MADRS Total Score: LSMean Difference (SE) Treatment-Placebo", "setting": "fITT, Treatment Week 4, MMRM", "value": "−2.5"}, {"measurement": "MADRS Total Score: Mean Change to Placebo (SD pooled)", "setting": "fITT, Treatment Week 5, 10 mg adjunctive to SSRI/SNRI", "value": "−1.9 (7.31)"}, {"measurement": "MADRS Total Score: Change from Baseline LSMean (SE)", "setting": "fITT, Treatment Week 5, MMRM", "value": "−8.7"}, {"measurement": "MADRS Total Score: LSMean Difference (SE) Treatment-Placebo", "setting": "fITT, Treatment Week 5, MMRM", "value": "−2.4"}, {"measurement": "MADRS Total Score: Mean Change to Placebo (SD pooled)", "setting": "fITT, Treatment Week 6, 10 mg adjunctive to SSRI/SNRI", "value": "−3.0 (8.31)"}, {"measurement": "MADRS Total Score: Change from Baseline LSMean (SE)", "setting": "fITT, Treatment Week 6, MMRM", "value": "−9.6 and −9.6 ± 0.79"}, {"measurement": "MADRS Total Score: LSMean Difference (SE) Treatment-Placebo", "setting": "fITT, Treatment Week 6, MMRM", "value": "−3.1"}, {"measurement": "MADRS total score: observed effect size", "setting": "fITT, Treatment Week 6, high anhedonia level", "value": 0.51}, {"measurement": "MADRS total score: difference between aticaprant and placebo", "setting": "fITT, Treatment Week 6, high anhedonia level, n=63", "value": "−4.6"}, {"measurement": "MADRS total score: observed effect size", "setting": "fITT, Treatment Week 6, low anhedonia level", "value": 0.29}, {"measurement": "MADRS total score: LSMeans difference estimate vs placebo, supplementary analysis (COVID-19 impact)", "setting": "fITT, data collected prior to 15 Mar. 2020, MMRM", "value": "−3.4"}, {"measurement": "MADRS Total Score: Effect size vs placebo", "setting": "[7]", "value": "−0.45"}, {"measurement": "MADRS Total Score: Mean Change from Baseline (SD)", "setting": "[7]", "value": "−4.4 (5.04)"}, {"measurement": "MADRS Total Score: Mean Change to Placebo (SD pooled)", "setting": "[7]", "value": "−2.0 (4.38)"}, {"measurement": "MADRS Total Score: Effect size vs placebo", "setting": "[8]", "value": "−0.54"}, {"measurement": "MADRS Total Score: Mean Change from Baseline (SD)", "setting": "[8]", "value": "−6.9 (6.66)"}, {"measurement": "MADRS Total Score: Mean Change to Placebo (SD pooled)", "setting": "[8]", "value": "−3.8 (6.94)"}, {"measurement": "MADRS Total Score: Effect size vs placebo", "setting": "[9]", "value": "−0.50"}, {"measurement": "MADRS Total Score: Mean Change from Baseline (SD)", "setting": "[9]", "value": "−8.6 (7.32)"}, {"measurement": "MADRS Total Score: Mean Change to Placebo (SD pooled)", "setting": "[9]", "value": "−3.8 (7.56)"}, {"measurement": "MADRS Total Score: Effect size vs placebo", "setting": "[10]", "value": "−0.51"}, {"measurement": "MADRS Total Score: Mean Change from Baseline (SD)", "setting": "[10]", "value": "−10.2 (8.04)"}, {"measurement": "MADRS Total Score: Effect size vs placebo", "setting": "[11]", "value": "−0.51"}, {"measurement": "MADRS Total Score: Mean Change from Baseline (SD)", "setting": "[11]", "value": "−11.3 (8.69)"}, {"measurement": "MADRS Total Score: Mean Change to Placebo (SD pooled)", "setting": "[11]", "value": "−4.6 (9.03)"}, {"measurement": "MADRS Total Score: Effect size vs placebo", "setting": "[12]", "value": "−0.24"}, {"measurement": "MADRS Total Score: Mean Change from Baseline (SD)", "setting": "[12]", "value": "−2.4 (4.59)"}, {"measurement": "MADRS Total Score: Mean Change to Placebo (SD pooled)", "setting": "[12]", "value": "−1.0 (4.39)"}, {"measurement": "MADRS Total Score: Effect size vs placebo", "setting": "[13]", "value": "−0.08"}, {"measurement": "MADRS Total Score: Mean Change from Baseline (SD)", "setting": "[13]", "value": "−4.1 (6.67)"}, {"measurement": "MADRS Total Score: Mean Change to Placebo (SD pooled)", "setting": "[13]", "value": "−0.5 (6.37)"}, {"measurement": "MADRS Total Score: Effect size vs placebo", "setting": "[14]", "value": "−0.23"}, {"measurement": "MADRS Total Score: Mean Change from Baseline (SD)", "setting": "[14]", "value": "−6.4 (6.77)"}, {"measurement": "MADRS Total Score: Mean Change to Placebo (SD pooled)", "setting": "[14]", "value": "−1.5 (6.65)"}, {"measurement": "MADRS Total Score: Effect size vs placebo", "setting": "[15]", "value": "−0.10"}, {"measurement": "MADRS Total Score: Mean Change from Baseline (SD)", "setting": "[15]", "value": "−7.3 (6.90)"}, {"measurement": "MADRS Total Score: Mean Change to Placebo (SD pooled)", "setting": "[15]", "value": "−0.7 (6.86)"}, {"measurement": "MADRS Total Score: Effect size vs placebo", "setting": "[16]", "value": "−0.29"}, {"measurement": "MADRS Total Score: Mean Change from Baseline (SD)", "setting": "[16]", "value": "−8.8 (7.48)"}, {"measurement": "MADRS Total Score: Mean Change to Placebo (SD pooled)", "setting": "[16]", "value": "−2.3 (7.80)"}]}
